# Toxic doses and inconclusive results are not listed. Certain results were filed several times, with different values. The list is limited to them. The source may hold further records. Results that share an entry differ, and nothing given here explains why; they may come from other doses, times, organisms or constructs than stated.
# Tested on: L1210 leukemia ip in BDF1 mice, survival T/C
# Assay: NCI In Vivo Anticancer Drug Screen. Data for tumor model L1210 Leukemia (intraperitoneal) in B6D2F1 (BDF1) mice
# Conditions: endpoint: mean survival time; dose: 32.0 mg/kg/injection; schedule: Q04DX003 (ip); vehicle: saline; higher = longer survival
structure (smiles),measurement,value
O=C(NP(=O)(N1CC1)N1CC1)c1cc(I)ccc1I,T/C,104 % of control and 177 % of control

# — PubChem BioAssay AID248 (DTP/NCI, 2004)
